Measured values reported in PMC10668032.
This is one part of the list. At the low end of the ranking the order means little.

These sequences were tested against SIX1-Q177R homeodomain (UniProt Q15475) (assay: universal protein binding microarray). Conditions: Universal all-10-mer PBM (8x60K, AMADID 030236), 300 nM GST-tagged protein, Alexa Fluor 488 anti-GST; buffer, salt, pH and temperature not stated; high values mean tight binding; most listed sequences are background and not binding sites; double strand, one strand shown.
AGCGGTAT showed a binding signal of 0.0516 E-score. GCGTGAAC showed a binding signal of 0.0454 E-score. In the case of GGTTAGCA, the binding signal is reported as 0.0241 E-score. ACAAATGT was tested, and the binding signal was -0.192 E-score. Sequence GCACATAA has a binding signal of -0.175 E-score. Sequence CAAATCCG has a binding signal of -0.214 E-score. CGCGTCCG gave a binding signal of 0.072 E-score. With CATCACAC the binding signal was 0.317 E-score. Sequence AGCGTTCG has a binding signal of -0.0283 E-score. With AGCCTCGA the binding signal was -0.0475 E-score. TCGGATCA showed a binding signal of 0.0443 E-score. Sequence GAATCTAC has a binding signal of -0.0922 E-score. For ATTTAAGC, the binding signal was -0.224 E-score. For GGTTTGAA, the binding signal was 0.0446 E-score. With AGTTACAG the binding signal was -0.118 E-score. TCACTGAA showed a binding signal of -0.137 E-score. GGAGCCCA gave a binding signal of -0.16 E-score. ATTGCCAA was tested, and the binding signal was -0.199 E-score. GTGGCCTA gave a binding signal of -0.146 E-score. CATGTGCA showed a binding signal of 0.007 E-score. With ATAAGCCA the binding signal was -0.163 E-score. Sequence CAGAAATA has a binding signal of -0.0113 E-score. AAGGGATG showed a binding signal of -0.167 E-score. With CGTAAGAG the binding signal was -0.0443 E-score. With AACATATG the binding signal was -0.133 E-score. In the case of CGCGAGCA, the binding signal is reported as -0.00612 E-score. With CGGTGTCA the binding signal was 0.492 E-score. CCTTATCG showed a binding signal of -0.0802 E-score. For GAGCAACC, the binding signal was -0.137 E-score. AGTGAACG gave a binding signal of -0.21 E-score. ACGCACGG was tested, and the binding signal was 0.117 E-score. CGGTTTCC gave a binding signal of -0.0637 E-score. Work on TACATTGA yielded a binding signal of -0.11 E-score. CGGCTAGA showed a binding signal of -0.0594 E-score. With GAAGGGAA the binding signal was -0.242 E-score. Sequence AGTTCAGA has a binding signal of -0.021 E-score. Sequence ACGTAGCT has a binding signal of -0.154 E-score. With CGAGGGAG the binding signal was 0.0712 E-score. In the case of TATCCCGA, the binding signal is reported as 0.0694 E-score. Work on ACAAGGAA yielded a binding signal of -0.161 E-score. Sequence ACCCTCAG has a binding signal of 0.121 E-score. CTGCAAAC showed a binding signal of -0.214 E-score. CCCGGACA showed a binding signal of 0.233 E-score. Work on AAGGTGTC yielded a binding signal of 0.471 E-score. Work on ATCCGCTC yielded a binding signal of 0.068 E-score. In the case of AATAGGGG, the binding signal is reported as 0.171 E-score. CCGGGGGA showed a binding signal of 0.137 E-score. With ATGATGGG the binding signal was -0.0686 E-score. In the case of AGAACAGC, the binding signal is reported as -0.289 E-score. GCTGCAGC showed a binding signal of -0.137 E-score. In the case of CTTGTTAC, the binding signal is reported as -0.0992 E-score. In the case of ACCCTTTA, the binding signal is reported as 0.119 E-score. ACCTGGGG showed a binding signal of 0.21 E-score. In the case of CGATCAAA, the binding signal is reported as -0.234 E-score. ATATGCTC gave a binding signal of -0.244 E-score. AGGGAGGG gave a binding signal of 0.142 E-score. ACAACCGG gave a binding signal of -0.0624 E-score. With CAAATACG the binding signal was -0.143 E-score. Sequence AAGCTCGC has a binding signal of -0.12 E-score. GCAAACAC gave a binding signal of 0.351 E-score. With CACTCTCG the binding signal was 0.288 E-score. Sequence AAGATGAA has a binding signal of 0.0107 E-score. ACAGGGCC showed a binding signal of -0.298 E-score. Work on GCATCGAA yielded a binding signal of -0.00262 E-score. GATTACTA was tested, and the binding signal was -0.105 E-score. CCGTCCAC was tested, and the binding signal was 0.00352 E-score. With AGAGAGAG the binding signal was -0.0365 E-score. AACCCCTA gave a binding signal of 0.157 E-score. For CGACAGAA, the binding signal was -0.0545 E-score. In the case of TCCGGAAA, the binding signal is reported as -0.132 E-score. Work on ATTTCATG yielded a binding signal of -0.27 E-score. For CTTTGGGC, the binding signal was -0.104 E-score. Work on CTACAGAC yielded a binding signal of -0.222 E-score. TGAGTAAA gave a binding signal of -0.0513 E-score. CTCTTCTC was tested, and the binding signal was -0.163 E-score. For ACCGGACA, the binding signal was 0.245 E-score. ACAGAGTC was tested, and the binding signal was 0.0365 E-score. For GAAGCCCC, the binding signal was -0.166 E-score. In the case of GTATTCCA, the binding signal is reported as 0.00732 E-score. In the case of ATGACCAG, the binding signal is reported as -0.167 E-score. Sequence CCCGATAA has a binding signal of 0.0899 E-score. AACCTCAA was tested, and the binding signal was -0.0335 E-score. GATGAGGA gave a binding signal of -0.0261 E-score. With ATAGGCTC the binding signal was -0.225 E-score. Sequence CGAATATA has a binding signal of -0.0667 E-score. With GCGCAAGC the binding signal was -0.0247 E-score.
